# Source: PMC4336329 (PLoS ONE, 2015)
# The campaign covered roughly 310,000 compounds. About 14,000 (4.5%) showed an effect of 50% or more. Effects have a minus sign here. The list shows a part of the results.
# Biological target: human ether-à-go-go-related gene (hERG) potassium channel (human, UniProt Q12809)
# Assay: primary screen, population patch clamp on CHO cells stably expressing hERG
# 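Note: peak tail current of the secondary pulse compared with the same well before compound.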
# human ether-à-go-go-related gene (hERG) potassium channel, sequence (Q12809 whole entry, looked up): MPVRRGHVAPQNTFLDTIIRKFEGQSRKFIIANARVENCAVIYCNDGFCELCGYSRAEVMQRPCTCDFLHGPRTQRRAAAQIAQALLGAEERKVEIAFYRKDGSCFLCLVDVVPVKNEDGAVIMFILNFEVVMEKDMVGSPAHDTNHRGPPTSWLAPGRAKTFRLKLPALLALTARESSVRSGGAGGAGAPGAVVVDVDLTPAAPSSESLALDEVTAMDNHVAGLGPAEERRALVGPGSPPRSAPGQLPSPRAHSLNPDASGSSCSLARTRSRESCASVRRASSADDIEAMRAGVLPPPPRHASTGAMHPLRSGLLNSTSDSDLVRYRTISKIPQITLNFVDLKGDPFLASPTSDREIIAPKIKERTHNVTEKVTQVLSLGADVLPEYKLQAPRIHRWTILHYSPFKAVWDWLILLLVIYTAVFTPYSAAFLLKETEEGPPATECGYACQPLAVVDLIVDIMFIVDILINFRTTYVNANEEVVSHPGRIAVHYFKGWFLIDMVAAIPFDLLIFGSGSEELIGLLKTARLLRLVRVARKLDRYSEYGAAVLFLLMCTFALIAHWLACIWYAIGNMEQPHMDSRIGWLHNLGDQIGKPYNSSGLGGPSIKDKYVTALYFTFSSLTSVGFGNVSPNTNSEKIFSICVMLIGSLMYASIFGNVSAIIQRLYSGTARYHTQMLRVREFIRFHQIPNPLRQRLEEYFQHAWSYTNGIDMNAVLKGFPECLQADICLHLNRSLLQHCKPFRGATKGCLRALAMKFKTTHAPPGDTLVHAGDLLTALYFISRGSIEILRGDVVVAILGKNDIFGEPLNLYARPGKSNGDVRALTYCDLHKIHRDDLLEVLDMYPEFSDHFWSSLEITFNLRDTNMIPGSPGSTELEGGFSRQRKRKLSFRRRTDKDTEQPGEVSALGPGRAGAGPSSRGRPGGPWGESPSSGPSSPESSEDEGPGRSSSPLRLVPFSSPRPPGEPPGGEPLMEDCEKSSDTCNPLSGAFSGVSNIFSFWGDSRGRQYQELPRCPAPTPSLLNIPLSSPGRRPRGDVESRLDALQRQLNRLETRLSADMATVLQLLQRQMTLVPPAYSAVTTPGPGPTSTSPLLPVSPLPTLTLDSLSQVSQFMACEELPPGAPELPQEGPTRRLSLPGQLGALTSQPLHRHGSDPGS
row,Compound,"hERG current change (%, negative = inhibition) at 10uM [%]"
1,O=C(COC(=O)c1ccccc1-n1cnnn1)c1ccc(F)cc1,-14
2,COc1ccc(C2Oc3ccccc3N2C(C)=O)cc1 (centres unmarked),-14
3,CC(C)CC(=O)Nc1ccc(C(=O)CN2CCC(C)CC2)cc1,8.63
4,COc1ccc2nc(NC(=O)c3ccccc3O)sc2c1,18.2
5,CCCCCCNC(=O)CNC(=S)N(Cc1cccs1)C1CCCCC1,2.13
6,O=c1c(O)c(-c2cc(O)c(O)c(O)c2)oc2cc(O)cc(O)c12,22.6
7,O=C(O)CCC(=O)NNC(=O)CCC(=O)NCc1ccccc1,16.5
8,CCOC(=O)c1ccc(NC(=O)Nc2c(C)n(C)n(-c3ccccc3)c2=O)cc1,-13.8
9,COC(=O)c1cc(OCC(=O)NC2CCCc3ccccc32)cc(C(=O)OC)c1 (centres unmarked),-2.85
10,NC(=O)c1c(NC(=O)CN2CCCC2)sc2c1CCCC2,-5.13
11,COc1ccc(-c2csc(NC(=O)c3ccc(C(C)(C)C)cc3)c2C(=O)O)cc1,24.9
12,CCC(C)(C)NC(=O)C(c1cccc(OC)c1OC)N(CC(C)C)C(=O)CCC(=O)Nc1cc(C)on1 (centres unmarked),-2
13,COc1cccc(CCC(=O)Nc2cc3c(cc2C(=O)O)OCCCO3)c1OC,2.98
14,O=S(=O)(Nc1ccccc1F)c1ccc(Cl)nc1,5.63
15,Cc1ccc(C)c(NC(=O)c2sc(Cl)nc2-c2ccccc2)c1,13.9
16,CC(C)c1ccc(N2C(=O)C(Cl)=C(N3CCOCC3)C2=O)cc1,13.6
17,COc1cccc(NC(=O)Nc2cccc(C(=O)O)c2)c1,19.1
18,O=C(Nc1ccc(F)c(F)c1)NC1CCCCC1,2.91
19,Cn1c(N)c(C(=O)COC(=O)/C=C/c2ccccc2Cl)c(=O)n(C)c1=O,-2.34
20,COc1ccc2oc(C(=O)N(C)CCOc3ccccc3)c(C)c2c1,-28.9
21,CCOc1ccc(C(=O)NC(C(=O)NCCc2ccc(S(N)(=O)=O)cc2)C(C)C)cc1 (centres unmarked),13.4
22,O=C(NC1C2CC3CC(C2)CC1C3)c1ccc(N2CCNCC2)c([N+](=O)[O-])c1 (centres unmarked),-18

row,Compound,"hERG current change (%, negative = inhibition) at 10uM [%]"
1,Cc1c(C(=O)NC2CCN(Cc3ccccc3)C2)oc2ccc(Br)cc12 (centres unmarked),-61.8
2,CC(/C=C1\SC(=S)N(NC(=O)c2cccc(O)c2)C1=O)=C\c1ccccc1,16.6
3,CN(Cc1ccccc1)C(=O)c1cccc(NC(=O)c2ccco2)c1,-32.7
4,Cc1cc(C)c(C)c(S(=O)(=O)N2CCN(c3ncnc4sc(C)c(C)c34)CC2)c1C,8.21
5,Cn1c(=O)c2c(nc(SCCN3CCCCC3)n2Cc2ccc(Cl)cc2)n(C)c1=O,-72.3
6,COc1ccccc1NC(=O)c1ccc(NC(=O)CSc2n[nH]c(N)n2)cc1,16.1
7,CCOc1ccc(C(=O)NCCC2=CCCCC2)cc1OCC,-0.0306
8,O=C(c1ccccc1NS(=O)(=O)c1cccc2cccnc12)N1CCOCC1,7.65
9,COc1cc(/C=C/C(=O)c2c(O)n(CCc3ccccc3)c(=O)[nH]c2=O)ccc1O,-2.53
10,CCOc1ccc(C(=O)OCC(=O)NCCCc2ccccc2)cc1,0.425
11,Cc1cc([N+](=O)[O-])nn1CC(=O)Nc1cccc2nonc12,15.1
12,CCCc1cc(C(=O)OCC(=O)N(CCC)c2c(N)n(Cc3ccccc3)c(=O)[nH]c2=O)sc1C,-11.2
13,C/C(=N\OC(=O)c1ccc(F)cc1)c1ccc(F)c(F)c1,12.9
14,Cc1oc2c(c(C)cc3oc(=O)c(CC(=O)N[C@H](C(=O)O)C(C)C)c(C)c32)c1C,15.2
15,O=C(NCc1ccc2c(c1)OCO2)c1ccc2c(c1)OCCO2,8.03
16,NC(=O)c1cc(S(=O)(=O)N2CC=C(c3ccccc3)CC2)cs1,-4.82
17,CCSC(C)CC1CC(=O)CC(=O)C1 (centres unmarked),-10.9
18,COc1cccc(C(=O)NCCS(=O)(=O)N2CCC(C)CC2)c1,-12.6
19,CCOC(=O)c1ccc(Nc2c(CC)c(C)nc3ncnn23)cc1,-14.3
20,CCn1c(=NC(=O)CSCC(=O)Nc2nccs2)sc2ccccc21,-5.31
21,O=C(O)CSc1nc2ccccc2n1-c1ccccc1,9.51
22,CC(=O)c1ccc(NS(=O)(=O)c2ccc(CC(C)C)cc2)cc1,-7.55
